# Patent US10745487B2, “Method of treating cancer by administering an anti-LGR5 monoclonal antibody” (Bionomics Limited, priority 2016, dated 2020)
# What was measured:
# [1] = test system: TCF/LEF promoter activation in HEK-293T cells expressing LGR5; test: TCF-LEF reporter (GFP) assay with Wnt3a plus R-spondins; format: cell-based, human; details: increasing concentrations of soluble antibody; Wnt3a plus RSPO1, RSPO2 or RSPO3
# Protocol: Parental HEK-293T cells and HEK-293T cell stably expressing LGR5 were transduced with a TCF-LEF reporter vector-containing lentivirus (GFP Cignal, QIAGEN) and selected for stable expression of the reporter. Parental and LGR5 expressing stable reporter lines were plated at 25,000/well in a 96 well plate, attached overnight, serum starved and treated with antibodies or vehicle for 6 h, then treated with recombinant human Wnt3a (3 nM) and recombinant human R-spondins for 18 h. Two concentrations for each R-spondins1-3 and one concentration of R-spo4 were tested (100 pM, 300 pM, 1 nM, 3 nM or 10 nM) based on our analysis of the activity of the different R-spondins in activation of the TCF/LEF reporter cell lines. The reporter driven GFP signal was measured on a plate reader. All experiments shown are pooled data from three independent experiments (each experiment performed in duplicate) for each R-spondin tested (data are means+SD).
# [2] = biological target: LGR5 ternary complexes (LGR5-Fc, RSPO or Norrin, RNF43/ZNRF3/LRP6) (Homo sapiens, UniProt O75473); details: RSPO and Norrin ligands; co-receptors RNF43, ZNRF3, LRP6
# Protocol: Binding of ligand alone (RSPO or Norrin) to LGR5 is not sufficient to induce LGR5 signaling. Instead, LGR5 forms ternary complexes with multiple co-receptors to drive signaling. […] RNF43-Fc, ZNRF3-Fc, and LRP6-Fc were coated on a 96-well high binding plate at 4 μg/mL in 1×PBS. The plate was incubated overnight at 4° C. and blocked with PBS+1% BSA. […] Triplicate wells were used for each condition was tested in triplicate. […] 1:10,000 dilution of anti-mouse IgG HRP (JIR) was used for detection. Plate was developed with TMB (Thermo), and data were collected on SpectraMax Plus 384 plate reader at 450 nm. Data analysis was done using GraphPad Prism 6 program.
# CHO-LGR5 cells = details: 5 hrs co-incubation
# Protocol: CHO-LGR5 cells were grown to confluent and were spun down, resuspended in PBS and were counted. An aliquot of cells (approximately 100 k) were added to another tube containing 100 μM pre-warmed (37° C.) CFSE (Carboxyfluorescein succinimidyl ester) and the mixture was incubated in the cell incubator for 15 min. The final CFSE concentration was about 1 μM. Next, cells were washed and resuspended in pre-warmed medium and were placed in the incubator for another 30 minutes followed by washing with PBS. […] To ensure binding of the antibody to CHO-LGR5 cells, in some studies an aliquot of cells was also stained with a secondary goat anti-human PE conjugated antibody and was analyzed on the calibur machine in the laboratory. The U937 cells were stained with DDAO-SE (DDAO succinimidyl ester; 2 μM of dye for 100K cells) for 15 minutes and in a light protected place in the laboratory and at room temperature. Cells were then 1 ml of FBS (fetal bovine serum) followed by incubation in a light protected place for 5 minutes.
# MDA-MB-231-LM3 model = test: MDA-MB-231-LM3 paclitaxel combination and limiting dilution re-implant; format: in vivo, CB.17 SCID mice
# Excerpt: These tumors were harvested, dissociated, pooled and re-implanted in a limiting dilution assay at 10, 30, 100 cells/flank into a new cohort of CB.17 SCID mice and allowed to grow with no treatment.
# Chain of LGR5 ternary complexes (LGR5-Fc, RSPO or Norrin, RNF43/ZNRF3/LRP6) (O75473 22-561, one chain of several): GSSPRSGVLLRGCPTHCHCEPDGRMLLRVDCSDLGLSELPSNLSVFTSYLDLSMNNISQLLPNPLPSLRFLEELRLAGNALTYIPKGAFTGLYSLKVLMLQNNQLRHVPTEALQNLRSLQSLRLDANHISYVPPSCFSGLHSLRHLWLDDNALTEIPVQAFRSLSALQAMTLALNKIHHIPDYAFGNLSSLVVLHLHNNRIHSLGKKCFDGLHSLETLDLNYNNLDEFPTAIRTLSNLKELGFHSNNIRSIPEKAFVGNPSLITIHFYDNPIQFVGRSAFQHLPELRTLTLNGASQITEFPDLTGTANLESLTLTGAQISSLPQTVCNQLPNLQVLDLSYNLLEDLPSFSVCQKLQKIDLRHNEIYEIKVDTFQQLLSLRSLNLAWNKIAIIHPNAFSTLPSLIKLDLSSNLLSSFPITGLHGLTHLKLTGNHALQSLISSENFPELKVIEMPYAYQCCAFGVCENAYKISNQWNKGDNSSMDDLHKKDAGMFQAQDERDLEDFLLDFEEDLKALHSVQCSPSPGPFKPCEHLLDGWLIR
substance,measurement,setting,value
18G7H6A3,induction of TCF/LEF promoter driven GFP expression by Wnt3a plus RSPO,[1],did not affect the induction of TCF/LEF promoter driven GFP expression
same,formation of LGR5 ternary complexes,[2],significantly reduced the formation of LGR5 ternary complexes
same,double positive population on co-incubation of U937-DDAO-SE and CHO-LGR5-CFSE cells,CHO-LGR5 cells,identified a double positive population of cells
same,cancer stem cell frequency by linear regression analysis,MDA-MB-231-LM3 model; 18G7H6A3 plus paclitaxel,reduced cancer stem cell frequency
same,inhibition in tumor growth compared to paclitaxel alone,MDA-MB-231-LM3 model; in combination with paclitaxel,minimal additive inhibition in tumor growth
same,tumorigenicity of re-implanted cells compared to paclitaxel alone,MDA-MB-231-LM3 model; in combination with paclitaxel,greatly decreased tumorigenicity
